Experimental data as given in patent publication US20220033522A1 (Janssen / Centocor, published 2022).

What was measured:
Test in all cases: BLI (Octet), his-tagged pIgR on anti-His biosensor
CV19B283 = CV19B283 (human)
CV19B308 = target: T1, CV19B308 (human, UniProt P01857 partial chain = IgG part)
T1 construct: domain: Fc

CV19B301 = target: T2, CV19B301 (human, UniProt P01857 partial chain = IgG part)
T2 construct: domain: Fc

B1: polymeric immunoglobulin receptor (pIgR), his-tagged (receptor)
chain: not shown
Q: How did the Kd (CV19B283) turn out when B1 was run?
A: Its Kd is 7.8 nM.

Q: What about the koff (CV19B308) of the same binder?
A: Its koff is 1.44e-06 s⁻¹.

Q: What about the koff (CV19B301) of the same binder?
A: The koff was 5.93e-05 s⁻¹.
